From US20120282279A1 (COVX TECHNOLOGIES IRELAND, published 2012)

Assays:
[1] = target: FGF21 cell surface receptor composed of FGFR1c and β-Klotho (on the cells of the bioactivity assays) (UniProt P16092 22-822; Q99N32 1-1043, limits assumed); assay: cell-based or functional assay
[2] = target: T1, FGF-R/β-Klotho on HEK-293 cells (UniProt Q86Z14 1-1044); assay: Indirect FGF-R/β-Klotho HEK-293 cell binding ELISA; liquid formulation B after 2 weeks at 25° C.
T1 construct: whole, on cells

[3] = target: T1, FGF-R/β-Klotho on HEK-293 cells; assay: Indirect FGF-R/β-Klotho HEK-293 cell binding ELISA; liquid formulation B after 2 weeks at 40° C.
[4] = target: T1, FGF-R/β-Klotho on HEK-293 cells; assay: Indirect FGF-R/β-Klotho HEK-293 cell binding ELISA; liquid formulation D after 2 weeks at 25° C.
[5] = target: T1, FGF-R/β-Klotho on HEK-293 cells; assay: Indirect FGF-R/β-Klotho HEK-293 cell binding ELISA; liquid formulation D after 2 weeks at 40° C.
[6] = target: T1, FGF-R/β-Klotho on HEK-293 cells; assay: Indirect FGF-R/β-Klotho HEK-293 cell binding ELISA; liquid formulation F after 2 weeks at 25° C.
[7] = target: T1, FGF-R/β-Klotho on HEK-293 cells; assay: Indirect FGF-R/β-Klotho HEK-293 cell binding ELISA; liquid formulation F after 2 weeks at 40° C.
[8] = target: T1, FGF-R/β-Klotho on HEK-293 cells; assay: Indirect FGF-R/β-Klotho HEK-293 cell binding ELISA; lyophilized formulation A after 2 weeks at 5° C.

T1 sequence (Q86Z14 whole entry): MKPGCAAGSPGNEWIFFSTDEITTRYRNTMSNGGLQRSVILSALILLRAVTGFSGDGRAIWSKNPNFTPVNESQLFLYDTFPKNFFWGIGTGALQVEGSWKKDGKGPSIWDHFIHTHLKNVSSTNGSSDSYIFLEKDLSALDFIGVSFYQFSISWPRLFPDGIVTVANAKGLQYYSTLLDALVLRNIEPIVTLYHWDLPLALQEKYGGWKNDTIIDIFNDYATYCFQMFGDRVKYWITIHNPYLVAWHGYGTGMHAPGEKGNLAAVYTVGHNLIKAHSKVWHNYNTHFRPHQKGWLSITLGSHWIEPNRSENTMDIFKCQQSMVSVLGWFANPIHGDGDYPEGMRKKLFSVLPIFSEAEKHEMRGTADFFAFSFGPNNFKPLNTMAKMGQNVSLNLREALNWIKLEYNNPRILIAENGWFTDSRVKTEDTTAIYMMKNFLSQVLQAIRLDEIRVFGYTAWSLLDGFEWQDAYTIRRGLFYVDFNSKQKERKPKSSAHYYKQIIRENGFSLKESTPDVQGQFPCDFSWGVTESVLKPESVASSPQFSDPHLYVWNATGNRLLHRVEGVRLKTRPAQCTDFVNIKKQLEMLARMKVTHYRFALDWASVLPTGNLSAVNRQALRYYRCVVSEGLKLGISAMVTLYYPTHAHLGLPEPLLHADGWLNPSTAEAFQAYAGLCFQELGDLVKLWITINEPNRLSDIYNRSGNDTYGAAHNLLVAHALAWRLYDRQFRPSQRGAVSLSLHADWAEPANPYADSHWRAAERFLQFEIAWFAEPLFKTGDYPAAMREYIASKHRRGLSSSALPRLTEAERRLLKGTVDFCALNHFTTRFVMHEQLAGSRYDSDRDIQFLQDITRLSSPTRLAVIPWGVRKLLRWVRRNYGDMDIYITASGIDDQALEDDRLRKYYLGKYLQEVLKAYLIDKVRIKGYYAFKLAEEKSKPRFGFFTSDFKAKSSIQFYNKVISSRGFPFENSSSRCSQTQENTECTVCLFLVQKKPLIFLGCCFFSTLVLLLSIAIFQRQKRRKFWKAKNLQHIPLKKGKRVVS
Sequence of UniProt P16092 (P16092 22-822 limits assumed, chain 1 of 2): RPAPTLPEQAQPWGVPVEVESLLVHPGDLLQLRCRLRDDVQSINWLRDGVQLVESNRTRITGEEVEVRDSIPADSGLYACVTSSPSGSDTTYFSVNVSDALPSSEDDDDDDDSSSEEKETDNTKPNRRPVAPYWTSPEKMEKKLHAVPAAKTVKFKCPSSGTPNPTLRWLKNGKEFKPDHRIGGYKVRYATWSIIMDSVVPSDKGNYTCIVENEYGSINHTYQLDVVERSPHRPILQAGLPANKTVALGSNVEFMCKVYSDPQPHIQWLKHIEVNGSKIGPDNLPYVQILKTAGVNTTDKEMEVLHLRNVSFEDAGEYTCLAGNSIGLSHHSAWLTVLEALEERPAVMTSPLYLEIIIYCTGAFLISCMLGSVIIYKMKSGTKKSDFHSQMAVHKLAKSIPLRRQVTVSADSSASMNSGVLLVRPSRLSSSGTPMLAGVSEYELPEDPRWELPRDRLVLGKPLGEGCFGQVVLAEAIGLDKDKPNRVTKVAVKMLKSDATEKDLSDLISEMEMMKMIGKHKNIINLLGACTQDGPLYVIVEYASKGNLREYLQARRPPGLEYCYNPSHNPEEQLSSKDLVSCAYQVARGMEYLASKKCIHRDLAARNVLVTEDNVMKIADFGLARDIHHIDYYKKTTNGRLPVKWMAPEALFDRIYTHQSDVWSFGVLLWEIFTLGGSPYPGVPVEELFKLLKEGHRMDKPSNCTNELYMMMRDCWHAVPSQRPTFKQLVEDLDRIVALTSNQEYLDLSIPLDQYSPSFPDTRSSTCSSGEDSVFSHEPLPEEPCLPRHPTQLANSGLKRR
Sequence of UniProt P16092 (Q99N32 whole entry, chain 2 of 2, further chain): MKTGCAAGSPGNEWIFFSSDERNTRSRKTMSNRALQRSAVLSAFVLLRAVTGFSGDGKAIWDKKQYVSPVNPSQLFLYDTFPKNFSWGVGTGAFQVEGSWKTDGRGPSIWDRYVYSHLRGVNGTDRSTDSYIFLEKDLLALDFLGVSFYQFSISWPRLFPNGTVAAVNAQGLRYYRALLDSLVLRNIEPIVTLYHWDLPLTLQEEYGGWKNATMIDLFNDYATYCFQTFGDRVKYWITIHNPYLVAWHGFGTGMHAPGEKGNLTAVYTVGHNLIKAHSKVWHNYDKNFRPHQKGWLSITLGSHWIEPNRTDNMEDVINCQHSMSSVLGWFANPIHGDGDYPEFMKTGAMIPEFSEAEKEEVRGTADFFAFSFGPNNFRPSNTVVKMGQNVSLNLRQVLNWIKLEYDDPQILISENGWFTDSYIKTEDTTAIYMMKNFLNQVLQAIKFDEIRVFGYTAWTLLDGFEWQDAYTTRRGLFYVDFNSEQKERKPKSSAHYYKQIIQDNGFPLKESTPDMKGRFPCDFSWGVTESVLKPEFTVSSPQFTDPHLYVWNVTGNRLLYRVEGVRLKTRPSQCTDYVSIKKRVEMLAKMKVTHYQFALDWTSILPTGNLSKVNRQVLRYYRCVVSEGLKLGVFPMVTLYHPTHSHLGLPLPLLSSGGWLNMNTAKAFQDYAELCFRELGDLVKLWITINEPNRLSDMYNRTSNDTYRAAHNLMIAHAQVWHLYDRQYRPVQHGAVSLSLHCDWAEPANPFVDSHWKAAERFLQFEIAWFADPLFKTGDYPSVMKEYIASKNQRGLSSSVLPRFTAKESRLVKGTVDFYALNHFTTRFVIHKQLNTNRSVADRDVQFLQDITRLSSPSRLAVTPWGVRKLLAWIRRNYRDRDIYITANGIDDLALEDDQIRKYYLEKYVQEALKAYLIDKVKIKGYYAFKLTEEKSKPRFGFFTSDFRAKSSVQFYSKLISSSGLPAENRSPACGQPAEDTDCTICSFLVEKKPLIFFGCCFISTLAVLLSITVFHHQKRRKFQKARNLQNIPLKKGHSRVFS

B1: Ab-L1-FGF21ΔH-D79C (other)
heavy: EVQLVESGGGLVQPGGSLRLSCAASGFTFSNYWMSWVRQSPEKGLEWVSEIRLRSDNYATHYAESVKGRFTISRDNSKNTLYLQMNSLRAEDTGIYYCKTYFYSFSYWGQGTLVTVSSASTKGPSVFPLAPSSKSTSGGTAALGCLVKDYFPEPVTVSWNSGALTSGVHTFPAVLQSSGLYSLSSVVTVPSSSLGTQTYICNVNHKPSNTKVDKRV[gap - human IgG1 Fc]
light: ELQMTQSPSSLSASVGDRVTITCRSSQSLLHTYGSPYLNWYLQKPGQSPKLLIYKVSNRFSGVPSRFSGSGSGTDFTLTISSLQPEDFAVYFCSQGTHLPYTFGGGTKVEIKRTVAAPSVFIFPPSDEQLKSGTASVVCLLNNFYPREAKVQWKVDNALQSGNSQESVTEQDSKDSTYSLSSTLTLSKADYEKHKVYACEVTHQGLSSPVTKSFNRGEC
chain: PIPDSSPLLQFGGQVRQRYLYTDDAQQTEAHLEIREDGTVGGAADQSPESLLQLKALKPGVIQILGVKTSRFLCQRPCGALYGSLHFDPEACSFRELLLEDGYNVYQSEAHGLPLHLPGNKSPHRDPAPRGPARFLPLPGLPPAPPEPPGILAPQPPDVGSSDPLSMVGPSQGRSPSYAS
modifications: Cys79 (numbering of SEQ ID NO:1) conjugated to linker-1 (L1); side chain of Lys99 covalently linked to linker-1 (L1)
- Glut1 Taqman Conjugate EC50 [1]: 3.7 nM

B2: Ab-L1-FGF21ΔH-H125C (other)
heavy: B1 heavy
light: B1 light
chain: B1 chain with C78D, H124C
modifications: Cys125 (numbering of SEQ ID NO:1) conjugated to linker-1 (L1); side chain of Lys99 covalently linked to linker-1 (L1)
- Glut1 Taqman Conjugate EC50 [1]: 3.2 nM

B3: Ab-L1-FGF21ΔH-A129C (other)
heavy: B1 heavy
light: B1 light
chain: B1 chain with C78D, A128C
modifications: thiol group of Cys129 (numbering of SEQ ID NO:1) covalently conjugated to linker-1 (L1); side chain of Lys99 covalently linked to linker-1 (L1)
notes: Antibody-protein conjugate: one FGF21ΔH-A129C is joined through L1 to the combining site of each arm of h38C2 IgG1; also called Ab-FGF21ΔH-A129C; Ab-(FGF21ΔH-A129C-L1)2
- Glut1 Taqman Conjugate EC50 [1]: 2.7 nM
- Bioactivity (relative %) [2]: 107 % relative to a reference material
- Bioactivity (relative %) [3]: 64 % relative to a reference material
- Bioactivity (relative %) [4]: 97 % relative to a reference material
- Bioactivity (relative %) [5]: 61 % relative to a reference material
- Bioactivity (relative %) [6]: 98 % relative to a reference material
- Bioactivity (relative %) [7]: 49 % relative to a reference material
- Bioactivity (relative %) [8]: 105 % relative to a reference material

Where a chain is given by its changes, count along the chain named. Names and notes keep the numbering of the source.
